According to article PMC4336329 (PLoS ONE, 2015):
Among all 310,000 compounds or so, about 2,200 (0.71%) showed an effect of 50% or more. The effect is printed as a negative number. This is one part of the list.

biological target: human ether-à-go-go-related gene (hERG) potassium channel (human, UniProt Q12809); experiment: primary screen, population patch clamp on CHO cells stably expressing hERG
Sequence (Q12809 whole entry, looked up): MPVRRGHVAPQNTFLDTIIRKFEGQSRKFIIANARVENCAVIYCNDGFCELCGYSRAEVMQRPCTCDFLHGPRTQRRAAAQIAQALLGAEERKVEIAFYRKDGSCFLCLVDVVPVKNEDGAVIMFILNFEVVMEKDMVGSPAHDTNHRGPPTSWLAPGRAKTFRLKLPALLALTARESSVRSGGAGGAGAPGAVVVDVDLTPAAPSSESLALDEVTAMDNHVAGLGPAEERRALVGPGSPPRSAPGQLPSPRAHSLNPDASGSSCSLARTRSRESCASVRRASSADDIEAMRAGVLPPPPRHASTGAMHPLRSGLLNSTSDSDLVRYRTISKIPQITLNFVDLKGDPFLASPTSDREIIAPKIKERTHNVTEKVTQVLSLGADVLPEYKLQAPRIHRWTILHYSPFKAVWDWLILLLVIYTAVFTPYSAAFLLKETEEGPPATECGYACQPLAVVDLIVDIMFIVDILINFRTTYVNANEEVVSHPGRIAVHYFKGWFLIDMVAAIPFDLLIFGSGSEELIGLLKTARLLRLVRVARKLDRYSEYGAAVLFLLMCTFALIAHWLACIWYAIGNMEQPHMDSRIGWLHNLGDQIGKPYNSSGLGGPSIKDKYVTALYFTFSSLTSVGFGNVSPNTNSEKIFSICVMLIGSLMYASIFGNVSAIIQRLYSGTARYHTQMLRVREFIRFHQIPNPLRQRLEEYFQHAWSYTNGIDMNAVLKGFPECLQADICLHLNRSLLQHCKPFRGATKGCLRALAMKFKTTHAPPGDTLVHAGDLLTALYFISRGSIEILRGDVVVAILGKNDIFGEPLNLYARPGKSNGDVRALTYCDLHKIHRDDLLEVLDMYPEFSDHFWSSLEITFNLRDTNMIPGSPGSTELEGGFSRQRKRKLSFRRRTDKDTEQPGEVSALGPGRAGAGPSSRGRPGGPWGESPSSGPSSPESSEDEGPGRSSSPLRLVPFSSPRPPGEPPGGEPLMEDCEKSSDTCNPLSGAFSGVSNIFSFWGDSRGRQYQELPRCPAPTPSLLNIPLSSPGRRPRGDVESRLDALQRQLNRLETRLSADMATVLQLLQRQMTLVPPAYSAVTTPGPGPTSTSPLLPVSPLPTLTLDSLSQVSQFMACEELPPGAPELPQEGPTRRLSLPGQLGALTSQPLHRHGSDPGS

SMILES	hERG current change (%, negative = inhibition) at 1uM [%]
CC(C)CN1C(=O)c2ccccc2C1(O)Cc1ccccc1 (stereo not drawn)	12.5
CC12C(=O)N(c3ccccc3)C(=O)C1C(c1ccccc1)N1CCCN12 (stereo not drawn)	14.6
CCOC(=O)c1sc(/N=C/c2c(C)[nH]n(-c3ccccc3)c2=O)c(C#N)c1C	-1.18
NC(=O)CSc1nc2cc([N+](=O)[O-])ccc2n1-c1cccc(C(F)(F)F)c1	-22
C#CCOCCOCCOCCNc1nc(N2CCN(C(=O)[C@H](Cc3ccc(O)cc3)n3cc([C@@H](N)CC(C)C)nn3)CC2)nc(N2CCN(C(=O)[C@H](Cc3ccc(O)cc3)n3cc([C@@H](N)CC(C)C)nn3)CC2)n1.Cl	-1.2
Cc1cccc(NC(=S)NC(C)CCc2ccccc2)c1 (stereo not drawn)	9.48
CCOC(=O)CNC=C(C(=O)OCC)C(=O)OCC	3.34
O=C(C(c1ccccc1)c1ccccc1)N1CCN(CCN2C(=O)c3cccc4cccc(c34)C2=O)CC1	6.84
O=C(Nc1cccnc1)c1ccc(Br)c(S(=O)(=O)N2CCCC2)c1	11.9
COc1ccc(Sc2cnn(-c3ccccc3)c(=O)c2Cl)cc1	7.29
CCCOc1ccc(C2=NNC(c3cccs3)=Nc3ccc(OC)cc32)cc1	14.4
COc1cc(NC(=O)c2cc3cccc(OC)c3o2)cc(C(=O)Nc2cccc(C(F)(F)F)c2)c1	14.6
CC(=O)Nc1ccc(C(=O)N/N=C/C2CC3C=CC2C3)cc1 (stereo not drawn)	12.5
O=C(N/N=C/c1ccc(OC(=O)c2cccs2)cc1)c1ccc(F)cc1	8.59
O=C(c1cccc(S(=O)(=O)Nc2ccc(Br)cc2)c1)N1CCC1	6.85
CCN(CC)S(=O)(=O)c1ccc(C)c(C)c1	8.53
CCOP(=O)(OCC)C(NC(=O)Nc1ccc(Cl)c(Cl)c1)C(N)=O (stereo not drawn)	8.2
Cc1ccc(N(CC(=O)NCCc2ccccc2)C(=O)c2csnn2)cc1	7.46
Cc1cccc(N2CCN(C(=O)c3ccc(CS(=O)Cc4ccc(Cl)cc4)o3)CC2)c1C (stereo not drawn)	1.68
CCNC(=O)Cc1ccc(NS(=O)(=O)c2ccc(F)cc2)cc1	8.41
Cc1ccccc1CNC(=O)CCc1ccccc1	13.8
CC(C)n1c(O)c(N=Nc2ccccn2)c2ccccc21	5.72

SMILES	hERG current change (%, negative = inhibition) at 1uM [%]
Cc1[nH]n(-c2ccc(Cl)cc2)c(=O)c1N=Nc1cccnc1	-1.8
Cc1cc(C)c(C)c(C(=O)COC(=O)CNC(=O)CNC(=O)c2ccco2)c1C	12.5
COc1ccc(CCC(=O)Nc2ccc3c(c2)OCO3)cc1	13.2
COc1ccc(/C=N/NC(=S)N[C@H]2CC3CCC2C3)cc1 (stereo partly drawn)	9.42
CC(c1ccccc1C(O)c1ccccc1)N(C)C.Cl (stereo not drawn)	3.62
CC(=O)c1ccc(C(=O)N2CCCC(N3CCN(c4ccc(F)cc4)CC3)C2)s1 (stereo not drawn)	-51.3
O=C(NCCNc1ccc([N+](=O)[O-])cc1)c1cccc(Br)c1	6.77
CCN1CC=C2C(C#N)=C(N)C(C#N)(C#N)C(c3cc(Cl)ccc3Cl)C2C1 (stereo not drawn)	-2.39
COc1ccc(S(=O)(=O)N2CCN(C)CC2)cc1Br	9.06
CCOc1ccc(CCNC(=O)C2CCN(c3nnc(-n4cccc4)s3)CC2)cc1OCC	2.88
O=C(CSc1nnc2c3ccccc3c3ccccc3c2n1)Nc1ccccc1F	10.6
CCCC(=O)Nc1ccc(-c2ccc(NC(=O)CCC)cc2)cc1	15.1
Br.O=C(CN1CCCCC1CO)c1ccc(OC(F)F)cc1 (stereo not drawn)	-21.3
COc1ccc(C(O)P(=O)(OC(C)C)OC(C)C)c(OC)c1 (stereo not drawn)	11.5
C=CCNC(=O)COc1ccc(Br)cc1Cl	-12.7
CC(=O)Nc1ccc(/C=N/NC(=S)NC(C)C)cc1	11.7
CC1CCN(S(=O)(=O)c2nnc(NC(=O)COc3ccccc3)s2)CC1	14.8
CCC(=O)N(C)CCc1cc2c(c(OC)c1/C=N/NS(=O)(=O)c1ccc(C)cc1)OCO2	-2.41
CCOc1ccccc1-c1noc(CCC(=O)NC2CCCCC2)n1	16.8
COc1ccc(/C=C/C(=O)Nc2c(C(=O)O)[nH]c3ccccc23)cc1OC	10.8
COc1ccc(N(CC(=O)NCc2cccs2)S(=O)(=O)c2cccnc2)cc1	9.3
CN(C)c1ccc(/C=N/N=C(N)N)cc1[N+](=O)[O-]	8.72

SMILES	hERG current change (%, negative = inhibition) at 1uM [%]
O=C(CC(=O)c1ccccc1)Nc1cccnc1	16.5
CCc1nnc(NC(=O)CN2CCN(c3ccccc3F)CC2)s1.Cl	8.76
Cc1cc(/C=C2/SC(=O)N(CC(=O)N3CCCC3)C2=O)c(C)n1C	6.48
O=C1C2CCCCN2C(=O)N1CCCCN1CCN(c2ccc(F)cc2)CC1 (stereo not drawn)	-7.05
COc1cccc(Nc2nc(N)c([N+](=O)[O-])c(NCc3ccccc3)n2)c1	9.81
CC(C)NC(=O)CSCc1c(Cl)cccc1Cl	-3.97
COc1ccccc1NC(C)C(=O)Nc1ccc(C(C)=O)cc1 (stereo not drawn)	1.97
CC(=O)Oc1ccc(-c2nc3c(C)cccc3c(=O)o2)cc1	11.9
COC(=O)c1ccc(COc2ncnc3c(Cl)cc(Cl)cc23)o1	3.89
O=C(/C=C/c1c(Cl)nc2ccccn12)N1CCN(c2ccccc2F)CC1	6.63
Cc1ccc(NC(=O)CCNS(=O)(=O)c2ccc3[nH]c(=O)oc3c2)cc1	0.634
Cc1ccc(C(C)C)c(OCC(=O)Nn2c(C)nc3ccccc3c2=O)c1	-10.3
CC1(C)c2ccccc2N2CC(=O)NC21/C=C/c1ccco1 (stereo not drawn)	6.37
Cc1c([N+](=O)[O-])cc(C(=O)Nc2ccc3ncccc3c2)cc1[N+](=O)[O-]	19.2
CCc1cc(CN2CCOCC2)c(NC(=O)c2ccccc2)s1	7.45
CCc1cc(=O)oc2c(C)c(OC(C)C(=O)NCCCn3ccnc3)ccc12 (stereo not drawn)	12.5
Cn1c(N)c(N=O)c(=O)n(C)c1=O	12.1
COCCN(C(=O)COC(=O)CC(C)c1ccccc1)c1c(N)n(Cc2ccccc2)c(=O)[nH]c1=O (stereo not drawn)	3.91
COc1ccc2nc(C)c3c(c2c1)OC(C)C3 (stereo not drawn)	-8.52
O=C(c1ccc(N2CCN(C3CC(=O)N(Cc4cccs4)C3=O)CC2)cc1)c1cccnc1 (stereo not drawn)	-15.5
COc1ccc(OC)c(NC(=O)CC2SC(=N)N(c3ccccc3)C2=O)c1 (stereo not drawn)	0.203
COc1ccc(S(=O)(=O)N2CCC(C)CC2)cc1Br	3.09

SMILES	hERG current change (%, negative = inhibition) at 1uM [%]
Fc1ccc(-c2nnc(CSc3nnc(-c4ccc5c(c4)OCO5)o3)o2)cc1	3.29
C#CCOCCOCCOCCNc1nc(N2CCN(C(=O)CCCCCCCCCCNC(=O)Cn3cc(C[C@@H](C)O)nn3)CC2)nc(N2CCN(C(=O)CCCCCCCCCCNC(=O)[C@@H]([C@H](C)O)n3cc(C)nn3)CC2)n1	11.4
COc1ccc(/C(O)=C2/C(=O)C(=O)N(CCN(C)C)C2c2ccc(OC)c(OC)c2)c(C)c1 (stereo not drawn)	8.29
O=C(CNC1CCCC1)Nc1ccc(S(=O)(=O)N2CCCCC2)cc1	11.8
O=C(CN1CCC(N2CCCCC2)CC1)N1CCOCC1.O=C(O)C(=O)O	9.13
CCOc1cc(S(=O)(=O)NC2CCCCC2)ccc1F	4.43
Clc1ccc(-c2nc3n(n2)Cc2ccccc2-3)cc1	1.24
Cc1nc2cc([N+](=O)[O-])ccc2c(=O)n1-c1cccc(Br)c1	-6.43
CCOC(=O)C1=NN(C(C)=O)C2(CC(=O)N(c3ccc(C)c(C)c3)C2=O)C1 (stereo not drawn)	0.383
Cc1cc2c(=O)[nH]cnc2s1	17
CC(C)(C)OCC(O)C[NH+]1CCN(C(=O)c2ccccc2)CC1.O=C([O-])C(=O)[O-] (stereo not drawn)	11
CC(=O)Nc1ccc(S(=O)(=O)c2ccc(N)cc2)cc1N	7.35
COc1ccc(C(=O)NCc2nnc(SCC(=O)Nc3nc4ccc(C)cc4s3)o2)cc1OC	9.95
N#CC1=C(N)OC2=C(C(=O)CCC2)C1C1C=CCCC1 (stereo not drawn)	7.33
COC(=O)c1cc(OC)c(OC)cc1NC(=O)CCCCCN1C(=O)CCC1=O	16
COc1ccc(CNC(=O)C(CCSC)NC(=O)c2ccco2)cc1 (stereo not drawn)	-0.678
CC(Cc1cccs1)NCc1ccccc1 (stereo not drawn)	12.8
Cc1cc(/C=C2/SC(=O)NC2=O)c(C)n1-c1ccc(N2CCOCC2)cc1	10.6
O=C(NC1CCCC1)C1CCN(C(=O)c2cccc(Cl)c2)CC1	29
CON/C=C(\C=Nc1ccc(Cl)cc1)c1ncc(C(F)(F)F)cc1Cl	3.4
CCOc1cc(C(=S)N2CCOCC2)ccc1OS(=O)(=O)c1ccc(Br)cc1	7.63
